# From PubChem BioAssay AID624296 (National Center for Advancing Translational Sciences (NCATS), 2012)
# Among all 350,000 compounds or so, about 9,900 (2.8%) were called active. Inconclusive means that the source gave no clear call. Such entries were picked first, then a sample of the others. The call rests on the fitted dose curve; in most records, active means well fitted activation curve with a large enough effect; inconclusive means small, poorly fitted or top-dose-only effect; inactive means no such curve, though single readings can be large or run the other way. Potencies of inconclusive entries are left out as doubtful fits.
# Assay: A quantitative high throughput screen for small molecules that induce DNA re-replication in MCF 10a normal breast cells. Further: nearly all actives have a fitted effect of over 50% in size. On activity, positive = re-replication: % of control where 0% means no effect.
# Conditions: MCF 10A DNA re-replication, Hoechst nuclear intensity, 48 h; activity, positive = re-replication: at 46.1 µM (top of the series)
# Potency means the concentration at half of the fitted maximal effect; tags describe the fitted curve by direction and shape.
Compound,Potency,"activity, positive = re-replication"
CCOC(=O)C(N)CSC1CC(=O)N(CCc2ccccc2)C1=O (centres undefined),"inconclusive [activator, partial curve, poor fit]",–
O=C(O)c1cncc(C#Cc2ccccc2)c1,"inconclusive [activator, partial curve, poor fit]",–
CCc1n[nH]c(=S)n1/N=C/c1ccccc1OCc1ccc(Cl)cc1,inactive,–
COc1cc(/C=C/C(=O)c2ccc3c(c2)OCCO3)cc(Br)c1OCC(=O)N(C)C,"inconclusive [activator, single point]",–
CNc1nc(NCc2ccccc2)c2ccccc2n1,"inconclusive [activator, partial curve]",–
O=c1cc(COc2ncnc3c(Cl)cc(Cl)cc23)nc2sccn12,"inconclusive [activator, partial curve, poor fit]",–
CC(C)(C)N(Cc1ccccc1)C(=O)COC(=O)C1CC1,inactive,–
C[C@H](CO)N1C[C@H](C)[C@@H](CN(C)C(=O)Nc2ccc(C(F)(F)F)cc2)Oc2c(NC(=O)Nc3ccc(C(F)(F)F)cc3)cccc2C1=O,"inconclusive [activator, single point]",–
CCOC(=O)c1c(C)[nH]c(C(=O)Cn2nnc(-c3ccccc3)n2)c1C,"inconclusive [activator, full curve, poor fit]",–
Cc1nc2ccccn2c1P(=O)(N1CCCCC1)N1CCCCC1,"inconclusive [activator, single point]",–
Cc1ccc(S(=O)(=O)N2CCCCC2)cc1NC(=O)C1CC(=O)N(c2ccc3c(c2)OCCO3)C1 (centres undefined),inactive,–
CCOc1ccc(S(=O)(=O)NCc2ccncc2)cc1,inactive,–
Cc1cc(C)nc(NC(=NCCc2c[nH]c3ccccc23)NC(=O)c2ccco2)n1,"inconclusive [activator, partial curve, poor fit]",–
O=C1C=CN(Cc2ccccc2)C(c2ccccc2)C1 (centres undefined),"inconclusive [activator, single point]",–
N#Cc1cccc(C(=O)OCc2cccc(S(=O)(=O)N3CCOCC3)c2)c1,inactive,–
Cc1nc2ccc(NC(=O)N(C(C)C)C(C)C)cc2s1,"inconclusive [activator, partial curve, poor fit]",–
CCC(COC)Oc1cc(NCc2ccccc2)c2ncn(C(C)C)c2c1 (centres undefined),"inconclusive [activator, single point]",–
Cc1ccccc1-c1cc(=O)c2ccccc2o1,"inconclusive [activator, single point]",–
Fc1ccc(-n2cc(-c3ccccc3)c3c(N4CCOCC4)ncnc32)cc1,"inconclusive [activator, full curve]",–
COC(=O)[C@H](Cc1ccccc1)NC(=O)Cn1cnc2c(NCc3ccccc3)ncnc21,"inconclusive [activator, full curve, poor fit]",–
CCn1nnc(-c2ccccc2NC(=O)c2cc(OC)c(OC)c(OC)c2)n1,"inconclusive [activator, full curve, poor fit]",–
COc1ccc(S(=O)(=O)N2CCCCC2)cc1NC(=O)CCC(=O)N1CCC(c2ccccc2)=N1,inactive,–
Cc1nc(SCC(=O)c2ccccc2)c(C#N)c(-c2ccco2)c1C(=O)NCc1ccco1,"inconclusive [activator, single point]",–

Compound,Potency,"activity, positive = re-replication"
CC(OC(=O)C1CCN(S(=O)(=O)c2ccc(C(C)(C)C)cc2)CC1)C(=O)N(C)C1CCCCC1 (centres undefined),"inconclusive [activator, full curve, poor fit]",–
COc1ccc(CNc2cc(C)nc3ncnn23)c(OC)c1,"inconclusive [activator, full curve, poor fit]",–
CCn1c(SCC(=O)N/N=C/c2c[nH]c3ccccc23)nnc1-c1ccc(C(C)(C)C)cc1,"inconclusive [activator, single point]",–
CCN(CC)c1ccc(/C=N/n2nnnc2N)c(O)c1,"inconclusive [activator, partial curve, poor fit]",–
Cc1cc(N2CCN(C)CC2)nc2ccc(NC(=S)N3CCN(c4ccc(Cl)cc4)CC3)cc12,active: 29.1 µM,–
C=CCN(c1ccc(C(=O)Nc2ccc3c(c2)n(C)c(=O)n3C)cc1)S(C)(=O)=O,"inconclusive [activator, single point]",–
Cc1sc2nc(C3CC3)nc(SCC(=O)N3CCc4ccccc4C3)c2c1C,"inconclusive [activator, single point]",–
Cc1csc(=O)n1CC(=O)OCC(=O)c1ccc(Br)cc1,inactive,–
C=CC(=O)N1C/C=C\C(c2ccc(OC)cc2)N(Cc2ccc(F)cc2)C(=O)C1 (centres undefined),inactive,–
CCOC(=O)N1CCN(C(=O)c2ccc(Cn3c(=S)[nH]c4cc5c(cc4c3=O)OCO5)cc2)CC1,inactive,–
CC(C)CCOP(=O)(c1ccc(N(C)C)cc1)C(O)c1ccc(C(C)C)cc1 (centres undefined),inactive,–
O=C(c1ccc(C(F)(F)F)cc1)c1c[nH]c(C(=O)NCCCn2ccnc2)c1,"inconclusive [activator, partial curve, poor fit]",–
CCc1cc(=O)oc2c(C)c(O)c(CN(C)C)cc12,"inconclusive [activator, partial curve, poor fit]",–
Cc1ccc2nc3c(cc(C(=O)NC4CCCCC4)c(=N)n3C3CCCCC3)c(=O)n2c1,"inconclusive [activator, partial curve, poor fit]",–
Cc1ccc2nc(C)/c(=N\O)c(C)nc2c1,inactive,–
CCN(CC)CCCN=Cc1c(O)n(-c2cccc(C)c2)c(=O)c2ccccc12,inactive,–
COc1ccccc1NC(=O)Cc1cccc2ccccc12,inactive,–
COC(=O)c1ccc(OCCCCN2CC(C)OC(C)C2)cc1 (centres undefined),inactive,–
CC(=O)N1c2ccc(S(=O)(=O)N3CCC(C(=O)NC(C)c4ccccc4)CC3)cc2CC1C (centres undefined),inactive,–
Cc1ccccc1OCC(=O)N/N=C/c1ccc(N2CCOCC2)o1,"inconclusive [activator, single point]",–
Cc1cccc(N(C)c2ncnc3onc(-c4ccc(F)cc4)c23)c1C,"inconclusive [activator, single point]",–
O=C1NC(=O)C(c2ccc(Cl)cc2Cl)N1 (centres undefined),"inconclusive [activator, single point]",–
Cc1ccc(C(=O)N2CCCC(C(=O)Nc3cccc(-c4ccc(F)cc4)c3)C2)cn1 (centres undefined),"inconclusive [activator, partial curve, poor fit]",–

Compound,Potency,"activity, positive = re-replication"
O=C1C(c2ccccc2)=[N+]([O-])c2ccccc21,"inconclusive [activator, single point]",–
O=C(CN1CCN(C(=O)c2c(F)cccc2F)CC1)Nc1ccccc1C(F)(F)F,"inconclusive [activator, single point]",–
Cc1cc(C)c(NC(=S)NCCCSC2CCCCC2)c(C)c1,"inconclusive [activator, single point]",–
COc1cc(-c2noc(C)c2C(=O)NCc2ccc(C)o2)cc(OC)c1OC,"inconclusive [activator, full curve, poor fit]",–
COc1cc(-c2noc(C)c2/C=C/c2cccc([N+](=O)[O-])c2)cc(OC)c1OC,–,inconclusive: 95.2% [activator]
O=C(c1cc([N+](=O)[O-])ccc1Cl)N1c2ccccc2Sc2ccccc21,active: 18.4 µM,–
COc1cc(/C=N/NC(=O)c2ccc3c(c2)OCCO3)cc(Cl)c1O,inactive,–
NC(=O)CC(NC(=O)Cc1cccc2ccccc12)c1ccc(NCc2ccccc2)c([N+](=O)[O-])c1 (centres undefined),"inconclusive [activator, full curve, poor fit]",–
CCOC(=O)Cc1c(C)nc2c(-c3ccccc3)cnn2c1C,active: 1.3 µM,–
O=C(N/C(=C\c1cccs1)C(=O)N1CCCCCC1)c1ccccc1,inactive,–
Cc1ccc(S(=O)(=O)N2CCCC2)cc1C(=O)NCCOc1ccccc1,inactive,–
O=C(C=C(C(=O)c1ccccc1)c1ccccc1)c1ccccc1,inactive,–
CCCCC/C(=N\NC(=O)CCC(=O)NCc1ccccc1)c1ccccc1,"inconclusive [activator, single point]",–
O=C(OCC(=O)N1CCOCC1)c1ccccc1Br,inactive,–
CC1CCc2sc(C(=O)NN=C3CCC(c4ccccc4)CC3)cc2C1 (centres undefined),inactive,–
COc1cccc(/C=N/Nc2nc(Nc3ccccc3)nc(-n3nc(C)cc3C)n2)c1O,active: 14.6 µM,–
N=C1/C(=C\c2ccc(-c3cccc(C(=O)O)c3)o2)C(=O)N=C2SC=C(c3ccccc3)N12,active: 3.26 µM,–
CCOC(=O)C(=CNc1ccc(NC2=NCC(C)(C)S2)cc1)C(=O)OCC,"inconclusive [activator, single point]",–
CC(=O)Nc1ccc(NC(=O)c2cc(C3CC3)nc3c2cnn3C(C)C)cc1,"inconclusive [activator, single point]",–
COc1nc(Nc2ccc([N+](=O)[O-])cc2)nc(NC2CCCCC2)n1,"inconclusive [activator, partial curve, poor fit]",–
CC(C)CN(C(=O)CSc1nnc(-c2cccs2)n1N)c1c(N)n(Cc2ccccc2)c(=O)[nH]c1=O,inactive,–
CON1C(=O)C(=O)N(OC)C(C)(C)C1(C)C,inactive,–
CCCCCOc1ccc(NC(=O)C(=O)NCC2CCCN2CC)cc1 (centres undefined),active: 14.6 µM,–
